Source: PubChem BioAssay AID504332 (National Center for Advancing Translational Sciences (NCATS), 2011)
About 31,000 (8.9%) of roughly 350,000 compounds were called active. The inconclusive results got no clear call from the source; some entries with a clear call stand among them for comparison. Calls come from the whole dose curve; as a rule, active = well fitted inhibition curve with a large enough effect; inconclusive = small, poorly fitted or top-dose-only effect; inactive = no such curve, though single readings can be large or run the other way. A potency beside an inconclusive call is a rough fit, not a confirmed value.

What follows are compounds tested against Histone-lysine N-methyltransferase EHMT2 (Homo sapiens) (UniProt Q96KQ7) (assay: qHTS Assay for Inhibitors of Histone Lysine Methyltransferase G9a). Conditions: G9a H3K9 monomethylation, AlphaScreen, 2 h; activity, negative = inhibition: at 59 µM (top of the series) unless noted.
Chain of UniProt Q96KQ7 (Q96KQ7 whole entry, looked up): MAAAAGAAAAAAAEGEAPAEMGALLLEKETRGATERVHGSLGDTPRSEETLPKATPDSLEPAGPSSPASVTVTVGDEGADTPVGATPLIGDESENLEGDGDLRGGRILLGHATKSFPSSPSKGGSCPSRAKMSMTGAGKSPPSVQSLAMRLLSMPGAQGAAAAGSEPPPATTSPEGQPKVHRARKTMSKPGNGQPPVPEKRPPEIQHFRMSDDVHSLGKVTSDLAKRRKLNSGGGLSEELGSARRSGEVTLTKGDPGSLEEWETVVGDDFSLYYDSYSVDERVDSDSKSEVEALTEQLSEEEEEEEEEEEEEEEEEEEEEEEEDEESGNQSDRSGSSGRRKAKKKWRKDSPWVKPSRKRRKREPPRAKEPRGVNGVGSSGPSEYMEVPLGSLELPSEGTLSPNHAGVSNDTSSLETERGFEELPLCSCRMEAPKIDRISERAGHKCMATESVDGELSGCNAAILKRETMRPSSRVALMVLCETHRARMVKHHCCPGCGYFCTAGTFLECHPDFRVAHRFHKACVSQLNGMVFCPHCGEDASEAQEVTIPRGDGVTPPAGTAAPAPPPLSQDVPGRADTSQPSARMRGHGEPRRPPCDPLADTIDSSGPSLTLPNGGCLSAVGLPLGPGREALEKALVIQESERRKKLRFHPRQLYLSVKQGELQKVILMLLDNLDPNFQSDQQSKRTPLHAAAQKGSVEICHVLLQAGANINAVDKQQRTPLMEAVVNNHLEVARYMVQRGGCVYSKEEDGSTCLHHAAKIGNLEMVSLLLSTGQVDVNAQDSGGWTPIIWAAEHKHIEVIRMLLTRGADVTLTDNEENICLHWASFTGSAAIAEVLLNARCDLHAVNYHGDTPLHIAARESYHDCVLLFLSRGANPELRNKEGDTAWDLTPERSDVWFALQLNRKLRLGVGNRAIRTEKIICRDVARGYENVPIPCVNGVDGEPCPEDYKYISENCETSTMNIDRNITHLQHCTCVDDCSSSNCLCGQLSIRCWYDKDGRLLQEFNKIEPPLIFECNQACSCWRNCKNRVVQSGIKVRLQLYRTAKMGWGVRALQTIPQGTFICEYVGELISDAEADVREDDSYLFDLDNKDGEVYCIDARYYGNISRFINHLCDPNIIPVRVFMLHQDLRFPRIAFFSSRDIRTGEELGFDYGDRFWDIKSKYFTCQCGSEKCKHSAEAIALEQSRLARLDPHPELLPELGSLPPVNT
How it was run: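 Methyltransferase reactions run at room temperature for 2 h (20 nM enzyme, 500 nM biotin-H3K9 peptide, 20 uM SAM) after a 15 min compound preincubation; product detected by AlphaScreen beads and anti-H3K9me1 antibody.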
% is set by controls: 0 for no effect and ±100 for the full control effect; potency is the fitted concentration of half-maximal effect; tags give direction and shape of the fitted curve.
Note: nearly all actives have a fitted effect of over 75% in size.

Compound	Potency	activity, negative = inhibition
CCCCNC(=O)c1ccc(-c2nc(CS(=O)(=O)c3ccc(C)cc3)c(C)o2)cc1	inconclusive: 7.08 µM [inhibitor, single point]	–
O=C(c1cccc(S(=O)(=O)Nc2ccc(Br)cc2)c1)N1CCC1	inconclusive: 39.8 µM [inhibitor, partial curve, poor fit]	–
O=C(O)CNS(=O)(=O)c1ccc(C2CCCCC2)cc1	inconclusive: 79.4 µM [inhibitor, partial curve]	–
Cc1cc(C)c2cc3c(N)c(C(=O)Nc4c(C)[nH]c(=O)[nH]c4=O)sc3nc2c1	–	inactive: -14.9% [at 102 µM]
COCCN(CCOC)C(=O)C12CCC(C)(C(=O)C1)C2(C)C (centres undefined)	active: 50.1 µM	–
O=C(Nc1nccs1)c1cc(N2CCOCC2)nc2ccccc12	inconclusive: 50.1 µM [inhibitor, partial curve, poor fit]	–
N#Cc1c(NC(=O)c2cc([N+](=O)[O-])ccc2N2CCOCC2)sc2c1CCCC2	inconclusive: 31.6 µM [inhibitor, single point]	–
CS(=O)(=O)N(CCc1ccccc1)CC(=O)NCc1ccco1	inconclusive: 35.5 µM [inhibitor, partial curve, poor fit]	–
CCc1ccc(NC(=O)CCS(=O)(=O)c2ccc3c(c2)oc(=O)n3C)cc1	–	inactive: -6%
COc1ccc(CCNC(=O)CCCn2c(=O)c3ccccc3n(CC(=O)Nc3c(C)cc(C)cc3C)c2=O)cc1OC	–	inactive: 7.94%
S=c1[nH]nc(-c2ccccc2Cl)n1/N=C/C=C/c1ccco1	active: 1.12 µM	–
N#C/C(=C\c1ccc(O)c(O)c1)C(=O)N1CCCC1	active: 12.6 µM	–
CCOc1ccccc1C(=O)Nc1ccc(S(=O)(=O)Nc2cc(OC)nc(OC)n2)cc1	–	inactive: -11.1% [at 102 µM]
O=C(N/N=C/c1ccco1)c1cccc(NC(=O)c2cccc(Cl)c2)c1	inconclusive: 89.1 µM [inhibitor, single point]	–
COC(=O)c1c(NC(=O)c2ccc(S(=O)(=O)N3CCCCC3)cc2)sc2c1CCN(C)C2	inconclusive: 1 µM [inhibitor, full curve, poor fit]	–
COc1ccccc1C1CCN(c2ccc([N+](=O)[O-])cn2)CC1	–	inactive: -8.3% [at 102 µM]
COc1ccc(N2CCN(C(=O)c3ccc(CS(=O)Cc4ccc(C)cc4)o3)CC2)cc1 (centres undefined)	inconclusive: 79.4 µM [inhibitor, single point]	–
O=C(N/N=C/c1ccncc1)c1cc([N+](=O)[O-])cc([N+](=O)[O-])c1O	inconclusive: 89.1 µM [inhibitor, single point]	–
O=C(c1ccccn1)c1ncc(C(F)(F)F)cc1Cl	–	inactive: 22.6% [at 102 µM]
CCc1ncc(/C=C2\C(=O)Nc3ccccc32)[nH]1	inconclusive: 70.8 µM [inhibitor, partial curve, poor fit]	–
c1cncc(CNc2ccnc(-c3cccnc3)n2)c1	–	inactive: -5.35% [at 0.501 µM]
CC1(C)OC(=O)C(=CNc2ccccc2)C(=O)O1	inconclusive: 89.1 µM [inhibitor, partial curve, poor fit]	–
COCCCN1C(=O)c2ccc(C(=O)NCc3ccco3)cc2C1=O	inconclusive: 39.8 µM [inhibitor, single point]	–

Compound	Potency	activity, negative = inhibition
COc1cc([N+](=O)[O-])ccc1NC(=O)/C=C/C(=O)O	active: 50.1 µM	–
Cc1cc(F)ccc1NC(=O)CCc1c(C)nn(-c2ccc(N3CCCCC3)nn2)c1C	inconclusive: 25.1 µM [inhibitor, single point]	–
COc1cccc(CNC(=O)CSc2ncc(S(=O)(=O)c3ccc(C)c(Cl)c3)c(=O)[nH]2)c1	–	inactive: -15.5%
COc1ccc2c(c1)c(CC(=O)Nc1ccccc1OC)c(C)n2C(=O)c1ccc(Cl)cc1	–	inactive: 14%
COc1ccc(C(=O)C[n+]2cccc(C)c2)cc1	active: 70.8 µM	–
CCn1cc(C(=O)NCCc2ccc(OC)c(OC)c2)c(=O)c2cc(S(=O)(=O)N3CCc4ccccc4C3)ccc21	inconclusive: 22.4 µM [inhibitor, partial curve, poor fit]	–
CCOC1=C/C(=C/c2c(N)n3nc(CC(=O)N4CCCCC4)sc3nc2=O)C=CC1=O	active: 50.1 µM	–
CCS(=O)(=O)c1ncc(Cl)c(C(=O)N(Cc2ccccc2)Cc2ccco2)n1	inconclusive: 20 µM [inhibitor, single point]	–
COc1ccccc1-c1noc(-c2ccc(NCCc3ccccc3)c([N+](=O)[O-])c2)n1	inconclusive: 28.2 µM [inhibitor, partial curve, poor fit]	–
COc1ccc2c(=O)c3c(=O)n(-c4ccc(C)cc4)c(-c4ccccc4)nc3oc2c1	–	inactive: 10.2% [at 102 µM]
CCc1ccc2oc(=O)cc(CN3CCCCC3C)c2c1 (centres undefined)	inconclusive: 70.8 µM [inhibitor, partial curve]	–
c1ccc2c(C[C@@H]3CNCCN3CC3CCCCC3)cccc2c1	–	inactive: 15.6% [at 2.33 µM]
COc1ccc(OC)c(-n2c(C)cc(/C=C3\C(=N)N4N=C(CC(=O)N5CCOCC5)SC4=NC3=O)c2C)c1	inconclusive: 79.4 µM [inhibitor, single point]	–
COC(=O)c1cccc(C23CC4(C2)[C@H](CN(Cc2ccc(-c5ccccc5)cc2)[C@@H]4c2ccccc2)C3c2ccc(Cl)nc2)c1 (some centres undefined)	inconclusive: 12.6 µM [inhibitor, single point]	–
COc1ccc(-n2c(SC3CCOC3=O)nc3ccccc3c2=O)cc1OC (centres undefined)	inconclusive: 50.1 µM [inhibitor, partial curve]	–
Cc1cc(C(=O)Nc2sccc2C#N)c2ccccc2n1	inconclusive: 79.4 µM [inhibitor, single point]	–
Cc1cnc(CNc2cc(-c3ccccc3C)ncn2)cn1	–	inconclusive: -53.4% [inhibitor] [at 0.501 µM]
CCOC(=O)c1c(N)sc(C(O)(C(F)(F)F)C(F)(F)F)c1-c1ccc(OC)cc1OC	active: 79.4 µM	–
Cc1ccc(NC2CCCN(C(=O)c3ccoc3)C2)cc1C (centres undefined)	active: 79.4 µM	–
O=C(OCCN1CCOCC1)C(c1ccccc1)c1ccccc1	–	inactive: 1.05% [at 102 µM]
CCOc1cccc(-c2cc(-c3n[nH]c(=S)n3CC)c3ccccc3n2)c1	inconclusive: 10 µM [inhibitor, partial curve, poor fit]	–
COc1ccc(NC(=O)Cn2nnc(-c3ccccc3F)n2)cc1Cl	inconclusive: 79.4 µM [inhibitor, partial curve, poor fit]	–
COc1ccc(Br)cc1CNc1ccc2[nH]c(=O)[nH]c2c1	inconclusive: 50.1 µM [inhibitor, partial curve, poor fit]	–

Compound	Potency	activity, negative = inhibition
NC(=O)CC(NC(=O)c1ccccc1)c1ccc(NCCOc2ccccc2)c([N+](=O)[O-])c1 (centres undefined)	–	inconclusive: -61.9% [inhibitor]
COC(=O)Cc1ccc(NC(=S)N2CCN(C)CC2)cc1	inconclusive: 39.8 µM [inhibitor, single point]	–
Cc1ccc(N2CCN(S(=O)(=O)N3CCCCC3)CC2)cc1C	–	inconclusive: -56.3% [inhibitor] [at 0.501 µM]
CCN(CC)C(=O)Oc1cc(=O)n2c3c(cccc13)CCC2	inconclusive: 89.1 µM [inhibitor, single point]	–
COc1ccc(CN2CCNC(=O)C2CC(=O)NCc2cc(C)n(C)n2)c(F)c1 (centres undefined)	active: 25.1 µM	–
Cc1c(O)ccc2c(CC(=O)N[C@@H](Cc3ccccc3)C(=O)O)cc(=O)oc12	–	inactive: 23.7% [at 0.501 µM]
CCOc1cc(C(=O)Nc2c(NC)c3ccccc3oc2=O)cc(OCC)c1OCC	–	inactive: 24.9%
O=C(NC(=S)Nc1cccc2ncccc12)c1ccccc1	inconclusive: 35.5 µM [inhibitor, partial curve]	–
O=C1C=C(Nc2ccc(Cl)cc2Cl)CC(c2ccco2)C1 (centres undefined)	active: 50.1 µM	–
Cn1c(CSc2ncccn2)nnc1SCC(=O)N1CCCCC1	inconclusive: 89.1 µM [inhibitor, single point]	–
CC(C)Oc1ccc(CCC(=O)N/N=C/c2ccc3c(c2)OCO3)cc1	–	inactive: 1.48% [at 102 µM]
O=C1N=C(O)CN1/N=C/c1ccc(-c2ccc([N+](=O)[O-])cc2)o1	–	inactive: 15.6% [at 12.7 µM]
COc1ccc(NC(=O)CN(C)C(=O)c2cc3c(s2)CCCCC3)cc1	inconclusive: 50.1 µM [inhibitor, partial curve, poor fit]	–
CCOc1ccc(-c2nn[nH]n2)cc1OCC	inconclusive: 10 µM [inhibitor, partial curve, poor fit]	–
O=S(=O)(c1ccc(F)cc1)c1nc(-c2ccccc2F)oc1N1CCCCC1	inconclusive: 1.26 µM [inhibitor, single point]	–
COc1ccc(CN2C(=O)N(c3ccc(F)cc3)C(=O)C2CC(=O)Nc2ccccc2)cc1 (centres undefined)	–	inactive: -30.4%
CC12COC3(C(=O)Nc4ccccc4)CC1CCC32C (centres undefined)	–	inconclusive: -83.7% [inhibitor] [at 0.501 µM]
Cc1cc(NC(=O)CSc2sc3c(O)cc(=O)[nH]c3c2C#N)ccc1Br	active: 35.5 µM	–
Cc1ccc(C)c(NC(=O)CSc2nncn3c2cc2sccc23)c1	–	inactive: -30.1%
COCCCN1C(=O)/C(=C\c2cccs2)C(C(=O)OC)=C1C	inconclusive: 35.5 µM [inhibitor, single point]	–
Cc1ccccc1/C=N/n1c(COc2ccccc2)n[nH]c1=S	active: 2 µM	–
Cc1nn(Cc2ccccc2)c(C)c1NC(=O)c1cc(-c2ccc3c(c2)OCO3)on1	inconclusive: 3.16 µM [inhibitor, partial curve, poor fit]	–
O=C(CSc1nc2ccccc2[nH]1)c1ccc2c(c1)OCO2	inconclusive: 6.31 µM [inhibitor, single point]	–
